Reference: paper PMC4336329 (PLoS ONE, 2015)
The campaign covered roughly 310,000 compounds. About 14,000 (4.5%) showed an effect of 50% or more. The effect is printed as a negative number. The list shows a part of the results.

Each compound was assayed against human ether-à-go-go-related gene (hERG) potassium channel (human, UniProt Q12809) (assay: primary screen, population patch clamp on CHO cells stably expressing hERG).
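Further: peak tail current of the secondary pulse compared with the same well before compound.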

Chain of human ether-à-go-go-related gene (hERG) potassium channel (Q12809 whole entry, looked up): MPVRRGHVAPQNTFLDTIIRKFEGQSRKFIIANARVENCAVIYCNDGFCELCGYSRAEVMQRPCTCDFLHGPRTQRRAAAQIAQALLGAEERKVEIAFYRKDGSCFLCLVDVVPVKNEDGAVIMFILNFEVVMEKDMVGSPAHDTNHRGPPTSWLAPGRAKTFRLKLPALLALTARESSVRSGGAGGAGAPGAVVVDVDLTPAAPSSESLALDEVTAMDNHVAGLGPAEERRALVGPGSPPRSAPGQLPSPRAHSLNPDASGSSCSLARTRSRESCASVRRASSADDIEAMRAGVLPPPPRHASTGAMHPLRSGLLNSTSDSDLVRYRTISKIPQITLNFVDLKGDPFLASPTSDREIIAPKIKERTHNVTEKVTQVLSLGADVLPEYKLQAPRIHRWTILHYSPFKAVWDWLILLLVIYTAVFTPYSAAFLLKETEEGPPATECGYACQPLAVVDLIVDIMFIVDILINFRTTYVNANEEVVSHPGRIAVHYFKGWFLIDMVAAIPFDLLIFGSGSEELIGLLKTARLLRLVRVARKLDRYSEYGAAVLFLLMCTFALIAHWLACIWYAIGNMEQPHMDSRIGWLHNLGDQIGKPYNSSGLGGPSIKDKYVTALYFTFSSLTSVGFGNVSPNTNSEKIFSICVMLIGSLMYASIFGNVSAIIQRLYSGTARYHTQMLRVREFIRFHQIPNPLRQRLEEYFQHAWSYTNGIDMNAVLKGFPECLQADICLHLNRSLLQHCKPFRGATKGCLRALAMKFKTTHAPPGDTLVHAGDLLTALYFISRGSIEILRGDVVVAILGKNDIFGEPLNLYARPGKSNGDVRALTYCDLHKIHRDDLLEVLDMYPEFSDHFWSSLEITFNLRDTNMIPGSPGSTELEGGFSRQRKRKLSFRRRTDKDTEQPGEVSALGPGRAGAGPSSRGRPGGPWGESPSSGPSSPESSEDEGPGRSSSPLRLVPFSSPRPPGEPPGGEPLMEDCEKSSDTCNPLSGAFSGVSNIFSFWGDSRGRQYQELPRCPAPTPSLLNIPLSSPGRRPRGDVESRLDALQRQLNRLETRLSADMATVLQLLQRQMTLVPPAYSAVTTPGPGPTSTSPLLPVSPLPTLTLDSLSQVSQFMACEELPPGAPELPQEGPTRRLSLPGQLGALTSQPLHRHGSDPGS

| Structure (SMILES) | hERG current change (%, negative = inhibition) at 10uM |
| --- | --- |
| CCOC(=O)N1CCN(C(=O)COc2ccc(S(=O)(=O)Nc3ccc(OCC)cc3)cc2)CC1 | 5.64% |
| CCC(Cc1ccccc1)NS(=O)(=O)c1csc(C(N)=O)c1 (centres unmarked) | 16.6% |
| COc1ccc(N2C(=O)CC(N3CCN(c4ccccc4)CC3)C2=O)cc1 (centres unmarked) | 8.93% |
| Cc1ccccc1C(=O)Nc1ccc(S(=O)(=O)N2CC(C)OC(C)C2)cc1 (centres unmarked) | 5.76% |
| Cc1cc(C)cc(OCC(=O)NC2CCCc3ccccc32)c1 (centres unmarked) | -1.2% |
| COC(=O)Nc1ccc2c(c1)N(C(=O)CCCl)c1ccccc1S2 | -8.44% |
| COc1ccc(C)cc1N(C(=O)c1ccc(F)cc1)c1nc2ccccc2s1 | 3.1% |
| CN(Cc1ccccc1)C1CCNCC1.Cl | 19.8% |
| Cn1cc(C(=O)NS(=O)(=O)Nc2ccc(Br)cn2)c2ccccc21 | 5.91% |
| COCCNc1nc(CSc2ccccc2)nc2sc(C)c(C)c12 | -5.97% |
| O=C(CC1CCCC1)N1CCN(S(=O)(=O)c2ccccc2)CC1 | -36.5% |
| O=C(CCN1C(=O)c2ccccc2C1=O)N1CCN(c2ccccn2)CC1 | -24.4% |
| OC(Cn1cccn1)c1ccccc1 (centres unmarked) | 22.1% |
| O=C(Nc1ccc2c3c(cccc13)CC2)c1ccco1 | -9.54% |
| Cc1ccc2c(Cl)c(C(=O)Nc3cc(C)on3)sc2c1 | 4.55% |
| CCCCNC(=O)CSc1nc2ccccc2c(=O)n1C1CCCC1 | -38.1% |
| CCS(=O)(=O)Nc1ccc(-c2cc(-c3ccccc3)c3cc(C)ccc3n2)cc1 | 0.812% |
| CCCn1c(NC(=O)C2CCN(S(=O)(=O)c3cccs3)CC2)nc2ccccc21 | -68.8% |
| Cc1cc(C(=O)N2CCCC(N3CCN(c4cccc(Cl)c4)CC3)C2)nn1C (centres unmarked) | -10.5% |
| CCOC(=O)CSc1nnc(-c2cc(OC)c(OC)c(OC)c2)o1 | 12.1% |
| COc1ccc(OC)c(N(CC(=O)O)S(=O)(=O)c2ccc(OC)c(OC)c2)c1 | 5.94% |
| S=C(c1ccc(-c2ccc(Br)cc2)o1)N1CCOCC1 | 14% |
| CC(=O)N1CN(C2CC(C)(C)NC(C)(C)C2)Cc2c1sc1c2CCCC1 | 6.77% |
| COC(=O)c1nc(NC(=S)NC(=O)c2cccs2)sc1C | 13.1% |
| CCn1nc(NC(=O)C(C)C)c2cc3cccc(C)c3nc21 | 22.9% |
| O=C(CCc1ccccc1)N=C1SC2CS(=O)(=O)CC2N1c1ccc(F)cc1 (centres unmarked) | 11.6% |
